Measured values as given in article PMC7819943, “Rice protein-binding microarrays: a tool to detect cis-acting elements near promoter regions in rice”.
This is one part of the list.

Molecular target: T1, OsWOX13 (Oryza sativa, UniProt Q5QMM3 1-267)
T1 sequence: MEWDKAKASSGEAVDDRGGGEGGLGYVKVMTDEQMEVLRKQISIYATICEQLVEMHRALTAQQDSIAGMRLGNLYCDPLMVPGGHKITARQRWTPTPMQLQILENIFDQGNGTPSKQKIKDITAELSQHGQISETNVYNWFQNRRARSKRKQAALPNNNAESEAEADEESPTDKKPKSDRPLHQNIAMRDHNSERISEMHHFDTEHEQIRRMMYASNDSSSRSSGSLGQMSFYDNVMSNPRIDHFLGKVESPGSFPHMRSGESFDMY
Assay: protein-binding microarray (RPBM); PBS, 2% BSA, 51.3 ng/ul salmon testes DNA, 50 uM zinc acetate, 200 nM TF, 25 C, 1 h; high values mean tight binding
Conditions: protein: recombinant; tags: N-terminal polyhistidine and DsRed monomer fusion (pET32a); label: CyDye5-dUTP incorporated in the synthesized complementary strand; 3' TTTTT single-stranded linker to array surface; dsDNA, one strand shown
Procedure, shortened: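 An Axon 4000B scanner gave the binding signal as per-feature fluorescence intensity in arbitrary units. This followed washing of a custom Agilent array that had been incubated for 1 h at 25 °C with 200 nM protein in PBS, 2% BSA, salmon testes DNA and 50 µM zinc acetate. The proteins were transcription factors fused at the N-terminus to polyhistidine and DsRed, expressed in E. coli BL21-CodonPlus and purified on Ni–NTA.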

Compared with “CCGGGGATTGATTTGCCGAGTGTATTATTGATCGTATGATCGGAGTCACCTAGTGCAG”, “GTCTGATTTGGAGTCTGTTGGAGATGCTCTAACAATCTAACGGAGTCACCTAGTGCAG” is lower in binding signal: 53500 fluorescence intensity (a.u.) for the first, 13100 fluorescence intensity (a.u.) for the second.

First: TTCCCCTCAATTGATTTCACCGGATAAGGAAAGGCGCGGCCGGAGTCACCTAGTGCAG
Second: ATTGTAATTAACTAATCATCATGCGTGTGCATTGTATTTACGGAGTCACCTAGTGCAG
The binding signal of the first is lower: 8510 fluorescence intensity (a.u.) for the first, 22600 fluorescence intensity (a.u.) for the second.

Compared with “GTATGGAAATTTAAAATGTGACGGATGGAGTTACAGGATCCGGAGTCACCTAGTGCAG”, “CATTTCAATTTGGACCATCATATTTCATCCATCTCCAAGTCGGAGTCACCTAGTGCAG” is lower in binding signal: 3980 fluorescence intensity (a.u.) for the first, 3410 fluorescence intensity (a.u.) for the second.

First: GAACTTCTAATTATCAATATCAGTTCAAATGAAAAGGAATCGGAGTCACCTAGTGCAG
Second: TTGATTTGTTGAAATGACTGATACTCCTTTTCTATTGTCTCGGAGTCACCTAGTGCAG
The binding signal of the first is lower: 3840 fluorescence intensity (a.u.) for the first, 41100 fluorescence intensity (a.u.) for the second.

Going from “ACCCTAATTACTATAGCTTTGTCTTCTTCTTCTTCTTCTTCGGAGTCACCTAGTGCAG” to “CTGGATGATAAATTGAGGGATCTAAAGTGAACTTATTCGACGGAGTCACCTAGTGCAG”, the binding signal falls from 20200 fluorescence intensity (a.u.) to 15400 fluorescence intensity (a.u.).

Going from “CACATTGCTTATGATTATCTTCTAGATGAATCTGCCAACTCGGAGTCACCTAGTGCAG” to “CATAAATGTCAAATTAATACTTTAAATGCATTATGAATTTCGGAGTCACCTAGTGCAG”, the binding signal rises from 5020 fluorescence intensity (a.u.) to 17600 fluorescence intensity (a.u.).

Compared with “CTCATGATGGATCCACCTTAATCAGATCGTTGCTCATGGCCGGAGTCACCTAGTGCAG”, “TTCTTGACAGGATGAAGGAATTGAGATGCCCTCCGGATAGCGGAGTCACCTAGTGCAG” is higher in binding signal: 4570 fluorescence intensity (a.u.) for the first, 26800 fluorescence intensity (a.u.) for the second.

Going from “GCCTAATTATTACATAGAGACCAATCAATAAGCTATTAGCCGGAGTCACCTAGTGCAG” to “ATGCCCATCAACCAATCATAGATTGATATCCATCCATAAACGGAGTCACCTAGTGCAG”, the binding signal falls from 36900 fluorescence intensity (a.u.) to 33600 fluorescence intensity (a.u.).

Compared with “TAGCCAATTCATATAATTAGCTACCTATAAACATATACTACGGAGTCACCTAGTGCAG”, “AGGTTTTAATTTAATTCAACTGCCACCAACACGCACCAGTCGGAGTCACCTAGTGCAG” is higher in binding signal: 3520 fluorescence intensity (a.u.) for the first, 10100 fluorescence intensity (a.u.) for the second.

First: CTGATGATAATCGTATTTCTGATGACCCATGATTCCGCGGCGGAGTCACCTAGTGCAG
Second: CAGTATATAAATAATTTGAATTAGATGAGATATATCCTAGCGGAGTCACCTAGTGCAG
The binding signal of the first is lower: 7090 fluorescence intensity (a.u.) for the first, 8160 fluorescence intensity (a.u.) for the second.

First: ACAAGATTATTTTAACATATGCATGATCTGATTTGATGCTCGGAGTCACCTAGTGCAG
Second: ATTAATTATTATAAATTTAGGAAATGGAATTATTTGATTTCGGAGTCACCTAGTGCAG
The binding signal of the first is lower: 20100 fluorescence intensity (a.u.) for the first, 25200 fluorescence intensity (a.u.) for the second.

Going from “AGTTGCTTGATTATTGGGACTTGGGAGCAACTCACACACTCGGAGTCACCTAGTGCAG” to “AATGGAATTGCACAGGGCTAATTGGCACTTGACACTTTGGCGGAGTCACCTAGTGCAG”, the binding signal rises from 13800 fluorescence intensity (a.u.) to 22500 fluorescence intensity (a.u.).

Going from “TCTAATTTGCATGATATCCAGAAGAGCTTAATATTTTGGCCGGAGTCACCTAGTGCAG” to “CCGCCAATCACCCCAACCATCCATTTATGTCGTCGCGCCCCGGAGTCACCTAGTGCAG”, the binding signal rises from 12900 fluorescence intensity (a.u.) to 17700 fluorescence intensity (a.u.).

First: ATCGCAATAACGGGTAATTGACTTCCGCTGATTTGTTTAGCGGAGTCACCTAGTGCAG
Second: GACAAATTTCTTCAAACTGACAAATTAATCGAGCCCTACCCGGAGTCACCTAGTGCAG
The binding signal of the first is higher: 24900 fluorescence intensity (a.u.) for the first, 7460 fluorescence intensity (a.u.) for the second.

First: CCAACTTGATTACATACGGCGGCATCTGTGTTATCACGGGCGGAGTCACCTAGTGCAG
Second: GGAAATGATTTGAAAAGTGGTTTTATTCCTGTTAACTTTACGGAGTCACCTAGTGCAG
The binding signal of the first is higher: 27200 fluorescence intensity (a.u.) for the first, 8080 fluorescence intensity (a.u.) for the second.

First: AACCGATTGGATCTAATAATGAGGGACTTATTCCATCACCCGGAGTCACCTAGTGCAG
Second: CCAATCAATTTGATCTCTCACCTCACTCTCGTGGGCTCACCGGAGTCACCTAGTGCAG
The binding signal of the first is lower: 4610 fluorescence intensity (a.u.) for the first, 11900 fluorescence intensity (a.u.) for the second.

First: TTGGAAGTTTGATTGAAATTGGAACGATGTGACGGGAAAGCGGAGTCACCTAGTGCAG
Second: CGAGATTGGTAGTATTTCTATATTTTACTACCAGTTGGCGCGGAGTCACCTAGTGCAG
The binding signal of the first is lower: 23300 fluorescence intensity (a.u.) for the first, 29600 fluorescence intensity (a.u.) for the second.

First: AAGATAATCACCGGGCAAATTACTGTTGCTGCTAGTTCACCGGAGTCACCTAGTGCAG
Second: TGTTAATGAATCTAGACTAAATAAATGTGGAAAGTGCTAGCGGAGTCACCTAGTGCAG
The binding signal of the first is higher: 28800 fluorescence intensity (a.u.) for the first, 4760 fluorescence intensity (a.u.) for the second.

First: GTGCGGATTCCCAATTAATTCCCATTGATCTATCGTATGTCGGAGTCACCTAGTGCAG
Second: CTTACTTCTATGTGATTTACTAACTACTTTTACATACTTTCGGAGTCACCTAGTGCAG
The binding signal of the first is higher: 12300 fluorescence intensity (a.u.) for the first, 3320 fluorescence intensity (a.u.) for the second.

First: GCACAGTAAGTGACCTAATCAATTGTAGTTAAATCCAGATCGGAGTCACCTAGTGCAG
Second: TGCCCCAATGATTTTGTACCACAGACCAGCTCAAGTTGCCCGGAGTCACCTAGTGCAG
The binding signal of the first is lower: 3510 fluorescence intensity (a.u.) for the first, 4400 fluorescence intensity (a.u.) for the second.

Going from “CCAAATTAAGTGGAAATTAATTTGCAAGCTGAGAACGATGCGGAGTCACCTAGTGCAG” to “TGCACGTGATATACTTGATTACTTGAGGAGAGACATGATCCGGAGTCACCTAGTGCAG”, the binding signal falls from 55000 fluorescence intensity (a.u.) to 10700 fluorescence intensity (a.u.).
